# Test results taken from patent US10485854B2, “Method of reducing biofilms” (Lysando AG, priority 2010, dated 2019).
# B1: POLY-gp144: fusion protein SEQ ID NO: 35: endolysin phiKZgp144 (SEQ ID NO: 1) with N-terminal peptide KRKKRKKRK (SEQ ID NO: 11) (protein)
# chain: MGSKRKKRKKRKKVLRKGDRGDEVCQLQTLLNLCGYDVGKPDGIFGNNTFNQVVKFQKDNCLDSDGIVGKNTWAELFSKYSPPIPYKTIPMPTANKSRAAATPVMNAVENATGVRSQLLLTFASIESAFDYEIKAKTSSATGWFQFLTGTWKTMIENYGMKYGVLTDPTGALRKDPRISALMGAELIKENMNILRPVLKREPTDTDLYLAHFFGPGAARRFLTTGQNELAATHFPKEAQANPSIFYNKDGSPKTIQEVYNLMDGKVAAHRK
# modifications: POLY-gp144
# B2: Pentapeptide-Ply511: fusion protein SEQ ID NO: 141: endolysin Ply511 (SEQ ID NO: 85) with hydrophobic peptide Phe-Phe-Val-Ala-Pro (SEQ ID NO: 135) (protein)
# chain: MFFVAPGSVKYTVENKIIAGLPKGKLKGANFVIAHETANSKSTIDNEVSYMTRNWKNAFVTHFVGGGGRVVQVANVNYVSWGAGQYANSYSYAQVELCRTSNATTFKKDYEVYCQLLVDLAKKAGIPITLDSGSKTSDKGIKSHKWVADKLGGTTHQDPYAYLSSWGISKAQFASDLAKVSGGGNTGTAPAKPSTPAPKPSTPSTNLDKLGLVDYMNAKKMDSSYSNRDKLAKQYGIANYSGTASQNTTLLSKIKGGAPKPSTPAPKPSTSTAKKIYFPPNKGNWSVYPTNKAPVKANAIGAINPTKFGGLTYTIQKDRGNGVYEIQTDQFGRVQVYGAPSTGAVIKK
# modifications: Pentapeptid-Ply 511
# Experiments:
# [1] = system: biofilm of the Pseudomonas aeruginosa strains 2572 and 2573; assay: Biofilm reduction, crystal violet assay; details: 1.25 μg PK-Peptide, 12 h
# [2] = system: biofilm of the Acinetobacter baumannii strain DSMZ30007; assay: Biofilm reduction, crystal violet assay; details: 1.25 μg PK-Peptide, 12 h
# [3] = system: biofilm of the Staphylococcus aureus strain KS13; assay: Biofilm reduction, crystal violet assay; details: 1.25 μg PK-Peptide, 12 h
# [4] = system: P. aeruginosa PAO1p cells; assay: Antibacterial activity, 1 hour incubation with 100 μg/ml protein, residual colony count
# [5] = system: Acinetobacter baumannii (DSMZ 30007); assay: as above; format: cell-based; details: undialyzed protein 100 μg/ml, room temperature (Table 18)
# [6] = system: Burkholderia solanacearum; format: cell-based; details: undialyzed protein 100 μg/ml; 1 hour, room temperature (Table 18)
# [7] = system: chloroform-permeabilized P. aeruginosa PAO1p cells; assay: Muralytic activity of P. pastoris expression supernatant (drop in optical density); format: biochemical, Pseudomonas aeruginosa
# [8] = system: biofilm of the Listeria monocytogenes strain ScottA; assay: Biofilm reduction, crystal violet assay; details: 25 μg/well, 12 h
molecule,measurement,setting,value
PK-peptide: the peptide PK alone; PK denotes the polycationic 9-mer Lys-Arg-Lys-Lys-Arg-Lys-Lys-Arg-Lys (SEQ ID NO: 11) (KRKKRKKRK) [reference compound],"effect on biofilm (crystal violet, absorption 590 nm)",[1],seems to enhance the formation
same,"effect on biofilm (crystal violet, absorption 590 nm)",[2],seems to enhance the formation
same,"effect on biofilm (crystal violet, absorption 590 nm)",[3],seems to enhance the formation
"phiKZgp144: unmodified modular endolysin of Pseudomonas aeruginosa phage φKZ, SEQ ID NO: 1 [reference compound]",antibacterial activity as the relative inactivation (%),"[4]; exponentially growing cells, undialyzed protein 100 μg/ml, room temperature (Table 6)",0 ± 15%
same,Reduction [%],"[4]; undialyzed protein 100 μg/ml, room temperature (Table 7)",0%
same,Reduction [%],"[4]; undialyzed protein 100 μg/ml, room temperature (Table 18)",0%
same,Reduction [%],[5],0%
same,Reduction [%],[6],0%
B1,inactivation level in log units,[4]; protein dialyzed to 50 mM KH2P04/K2HP04 pH 7 instead of undialyzed,3.9±0.2 log units
same,enzymatic (muralytic) activity in supernatant,"[7]; 30 μl supernatant after 1 day of expression, pH 6.2",limited enzymatic activity
same,enzymatic (muralytic) activity in supernatant,"[7]; 30 μl supernatant after 3 days of expression, no significant increase at the fourth day",maximum activity
B2,"reduction of biofilm (crystal violet, absorption 590 nm)",[8],massive reduction
